Laboratory results as given in the supplement of paper PMC7826260.
The list shows a part of the results. Each Rep nickase domain was tested in vitro on the same pool of single strands for 1 h at 37 °C with 3 µM enzyme; only the middle of the 90-letter strands is printed. A value is the log2 ratio of uncut reads to the pool without enzyme; the lower, the more was cut; hits are not called. Because reads are shares of a total, they shift together; uncut strands gain when others are lost, and binding without cutting may add a little.

Key:
Assay in all cases: uncleaved DNA left, log2 of reads against the no-enzyme library (log2 ratio); higher = less cleavage (more negative = more Rep cleavage of the k-mer); sequences stand for … in CTCGTCCG…ACCGGAGA
[1] = test system: T1, Rep nickase domain of Muscovy duck circovirus
T1 sequence (residues 1-111, tag not shown): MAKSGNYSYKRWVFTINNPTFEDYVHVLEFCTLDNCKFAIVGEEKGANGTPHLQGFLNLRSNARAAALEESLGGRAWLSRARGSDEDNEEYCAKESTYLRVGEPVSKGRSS
Method: (§1)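 A pool of 90-nt single-stranded DNAs with seven random bases just before the constant AC of the nick site (name = the seven bases) was cut by 3 µM recombinant His6-SUMO-tagged Rep nickase domain (300 nM DNA, 50 mM HEPES pH 8.0, 50 mM NaCl, 1 mM MnCl2, 1 h, 37 °C, three replicates). Uncut DNA was amplified and sequenced.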

[2] = test system: T2, Rep nickase domain of banana bunchy top virus
T2 sequence (residues 1-94, tag not shown): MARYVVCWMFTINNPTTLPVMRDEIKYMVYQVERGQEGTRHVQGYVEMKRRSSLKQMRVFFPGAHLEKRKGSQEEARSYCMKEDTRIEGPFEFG
Method: as §1

[3] = test system: T3, Rep nickase domain of cabbage leaf curl virus
T3 sequence (residues 1-116, tag not shown): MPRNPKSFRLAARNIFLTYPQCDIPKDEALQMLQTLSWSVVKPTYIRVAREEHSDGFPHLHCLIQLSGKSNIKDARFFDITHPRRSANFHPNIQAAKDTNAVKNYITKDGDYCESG
Method: as §1

[4] = test system: T4, Rep nickase domain of chickpea chlorotic dwarf virus
T4 sequence (residues 1-124, tag not shown): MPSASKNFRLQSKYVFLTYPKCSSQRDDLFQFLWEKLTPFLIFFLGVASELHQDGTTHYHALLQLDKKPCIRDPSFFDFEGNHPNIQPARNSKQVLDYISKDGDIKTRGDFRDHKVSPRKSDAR
Method: as §1

[5] = test system: T5, Rep nickase domain of faba bean necrotic yellows virus
T5 sequence (residues 1-98, tag not shown): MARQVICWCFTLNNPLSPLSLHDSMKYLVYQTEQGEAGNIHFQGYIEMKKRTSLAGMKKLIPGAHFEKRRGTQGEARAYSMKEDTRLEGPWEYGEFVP
Method: as §1

[6] = test system: T6, Rep nickase domain of maize striate mosaic virus
T6 sequence (residues 1-117, tag not shown): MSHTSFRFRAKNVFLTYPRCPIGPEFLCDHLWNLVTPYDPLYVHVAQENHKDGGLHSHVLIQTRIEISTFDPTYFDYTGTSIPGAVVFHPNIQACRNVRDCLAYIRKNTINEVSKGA
Method: as §1

[7] = test system: T7, Rep nickase domain of porcine circovirus 2
T7 sequence (residues 2-116, tag not shown): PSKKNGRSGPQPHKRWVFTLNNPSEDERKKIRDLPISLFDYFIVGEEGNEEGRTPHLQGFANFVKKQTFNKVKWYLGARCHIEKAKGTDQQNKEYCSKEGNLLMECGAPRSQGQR
Method: as §1

[8] = test system: T8, Rep nickase domain of tomato yellow leaf curl virus
T8 sequence (residues 1-136, tag not shown): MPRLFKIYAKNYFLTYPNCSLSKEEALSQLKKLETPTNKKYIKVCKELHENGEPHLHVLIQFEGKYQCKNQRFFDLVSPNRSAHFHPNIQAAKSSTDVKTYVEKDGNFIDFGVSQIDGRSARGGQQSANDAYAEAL
Method: as §1

[9] = test system: T9, Rep nickase domain of wheat dwarf virus
T9 sequence (residues 1-137, tag not shown): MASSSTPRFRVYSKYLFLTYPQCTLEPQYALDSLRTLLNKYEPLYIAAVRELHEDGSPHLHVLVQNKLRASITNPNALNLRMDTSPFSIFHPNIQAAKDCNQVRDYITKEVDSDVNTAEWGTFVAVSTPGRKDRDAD
Method: as §1

Sequence	uncleaved DNA left (log2) [1]	uncleaved DNA left (log2) [2]	uncleaved DNA left (log2) [3]	uncleaved DNA left (log2) [4]	uncleaved DNA left (log2) [5]	uncleaved DNA left (log2) [6]	uncleaved DNA left (log2) [7]	uncleaved DNA left (log2) [8]	uncleaved DNA left (log2) [9]
CCATCAC	0.103	0.0964	-0.0625	-0.461	0.132	-0.886	0.203	0.0597	-0.0335
CGGAAGA	-0.0312	-0.0359	-0.0338	0.288	-0.0108	-0.325	0.0808	-0.00355	-0.0353
GTCGTAT	-0.102	0.00712	0.384	0.886	0.0466	1.65	0.0938	0.187	0.118
GAGTGCT	-0.692	-2.16	-0.428	-1.04	-2	-0.306	-3.07	0.0118	-0.0885
AAGGGCG	0.0571	0.0977	-0.808	0.0692	0.0481	-0.801	0.0917	0.0604	-0.0943
TTTGCAG	0.0117	-0.0832	-0.779	0.225	-0.0173	-1.05	0.202	0.0591	-0.0192
CTGCCGC	0.047	-0.111	-0.279	-0.534	0.0396	-0.609	-0.0926	0.00491	-0.132
TTCACTG	-0.0983	-0.134	-0.106	0.0999	-0.105	0.958	-0.0895	-0.233	-0.126
CGACTAA	-0.0543	0.00383	-0.025	0.65	-0.105	1.22	-0.059	-0.0478	0.122
GTAGGCT	0.157	0.121	0.306	0.778	0.0479	1.3	0.151	0.159	0.159
CCACGGA	-0.176	-0.215	0.0164	0.0983	-0.141	-0.268	0.0887	-0.0635	-0.0149
TCCATAA	0.0833	0.11	-0.0923	-0.279	-0.00813	-0.606	-0.0164	-0.0235	-0.105
CCGATCT	0.0262	-0.142	0.00662	-1.61	0.1	-0.159	-0.224	0.022	-0.042
TTGGTCT	0.128	0.0157	0.0944	-1.15	0.0841	-0.0827	0.0358	0.115	0.0755
CTGAAAT	-0.00555	-0.0582	0.0649	-0.396	0.00911	-0.211	-0.212	-0.118	0.053
ACCACCC	-0.225	-0.0642	-0.187	-0.531	-0.081	-0.645	-0.655	-0.247	-0.212
GTATCAC	-0.0991	-0.0419	0.249	0.812	-0.113	1.52	0.00123	0.0074	0.00629
CGAAAGT	0.0697	-0.0303	-0.018	-0.126	0.0121	-0.389	0.0242	0.076	0.0392
TTTTAAG	0.0334	0.0173	-0.785	-0.507	0.0669	-0.978	0.216	-0.00125	-0.0347
TGTCGCT	0.0452	-0.0281	-0.236	-1.17	-0.00461	-0.832	-0.168	-0.0242	-0.0733
TCGATAC	0.0767	-0.0149	0.0967	-0.343	0.0816	-0.478	0.207	0.0199	0.017
CCACTAA	0.146	0.0451	-0.25	-0.783	-0.0262	-0.659	-0.0809	-0.234	-0.0109
TAGGACT	0.0197	0.0553	0.39	0.6	-0.00701	1.2	-0.203	0.063	0.133
TTCCGAG	-0.00983	0.0332	0.876	1.02	0.0136	2.27	0.194	0.00131	0.143
GAGGTAT	0.0323	0.103	0.493	1.19	0.0156	1.81	-0.309	-0.0228	0.0948
ACATACT	-3.29	-0.203	-0.873	-2.97	0.0798	-0.982	-3.67	-0.0585	-0.159
GACCTAC	0.12	0.0403	0.24	-0.131	0.00708	0.398	0.00288	0.104	0.0599
GCGGCGG	0.0245	-0.0133	0.054	0.582	0.0481	1.36	0.103	-0.155	-0.038
CATCGCA	-0.0729	-0.00986	-0.401	-0.879	0.0536	-1.25	0.0592	0.0792	-0.102
CTTCTAT	-0.0166	-0.0788	0.0793	-0.761	0.0642	-0.528	-0.00978	0.24	0.196
